Results taken from PubChem BioAssay AID1346428 (National Center for Advancing Translational Sciences (NCATS), 2018).
In all, about 48,000 compounds went through this assay and about 1,200 (2.5%) were called active. Inconclusive results, whose numbers are uncertain, are shown with a selection of clear calls.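 Rule for the calls: active = activation of at least 60% and not above a set upper limit (about 1 call in 100 departs from these limits); inconclusive = activation of 40% to 60%, or above that upper limit; inactive = activation under 40%.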

Target: Probable G-protein coupled receptor 32 (Homo sapiens) (UniProt O75388)
Experiment: qHTS for Agonists of Human Resolvin D1 Receptor DRV1
Conditions: CHO-K1 GPR32 beta-arrestin PathHunter luminescence, 90 min; at 76.9 µM; hits give high values; zero percent set by DMSO-only wells
Excerpt: Endogenous resolution of inflammation is known to be transduced through various GPCRs and their natural mediators of lipid nature. Resolvin D1 (RvD1) is one of the active players in resolution of acute inflammation through regulation of anti-inflammatory pathways; it is known to enhance phagocytosis of human macrophages, limits neutrophils infiltration, etc. […] The search for GPR32-activating small molecules with anti-inflammatory effects similar to its natural omega-3 derivative ligand in order to use them as research tools for further studies of inflammation and its resolution was the goal of this screening project. For primary screening assay, we used CHO-K1 GPR32 beta-arrestin cell line (DiscoveRx, #93-0321C2A) and the PathHunter(R) beta-Arrestin Assay (DiscoveRx) which measures recruitment of beta-arrestin to the GPR32 and generates chemiluminescent signal. These engineered cells stably transfected with GPR32 co-express GPR32-fused small 42-amino acid fragment of beta-Gal called ProLinktrade mark, and […] -tagged beta-Arrestin fusion protein. When GPR32 is activated by a ligand, it stimulates binding of beta -Arrestin to ProLink-tagged GPR32, and two parts of beta-Gal complement forming a functional enzyme. Upon substrate (PathHunter(R) Detection reagent) addition, beta-Gal hydrolyzes it and generates a chemiluminescent signal.
The cells were thawed and plated in thawing media containing F-12 HAM (Invitrogen, #11765-054), 10% FBS (Invitrogen, #10082), 1x Glutamine, and 1x Pen/Strep onto the 175-mm flask for 24 hours. Then, thawing media was replaced with Growth media which contains 800microg/mL Geneticin (Invitrogen, #10131) and 300microg/mL Hygromycin B (Invitrogen, #10687) in addition to described above. For the assay, the cells were harvested at ~80% confluent stage with Cell Dissociation buffer (Gibco, #13151), and seeded at 2,500 cells/ 3microL/well in assay media (PathHunter(R) Cell Plating Reagent, DiscoverX, #93-0563R1B) using MultiDrop Combi dispenser (Thermo Scientific, Logan, UT) onto white solid bottom tissue culture-treated 1536-well plates (Greiner # 789173-F) and allowed to attach overnight at 37 degrees C, 95% humidity, 5% CO2, . Next, 23nL/well of compound solutions in DMSO were added with a Pin Tool (Kalypsis, San Diego, CA) to the assay plates. As the basal control (EC0), 23 nL/well of DMSO was used on each plate. The cells were incubated in the presence of compounds or DMSO for 90 minutes at 37 degrees C, 5% CO2. Subsequently, 1.5microL/well of PathHunter(R) Detection Reagent prepared per the manufacturer's instructions was added to the assay plates with BioRAPTR FRDtrade mark dispenser (Beckman Coulter, San Francisco, CA) and incubated for 1 hour at ambient temperature prior to the measurement of the luminescent signal on ViewLux(R) uHTS Microplate Imager (Perkin Elmer, Waltham, MA).

UniProt O75388, sequence (O75388 whole entry, looked up): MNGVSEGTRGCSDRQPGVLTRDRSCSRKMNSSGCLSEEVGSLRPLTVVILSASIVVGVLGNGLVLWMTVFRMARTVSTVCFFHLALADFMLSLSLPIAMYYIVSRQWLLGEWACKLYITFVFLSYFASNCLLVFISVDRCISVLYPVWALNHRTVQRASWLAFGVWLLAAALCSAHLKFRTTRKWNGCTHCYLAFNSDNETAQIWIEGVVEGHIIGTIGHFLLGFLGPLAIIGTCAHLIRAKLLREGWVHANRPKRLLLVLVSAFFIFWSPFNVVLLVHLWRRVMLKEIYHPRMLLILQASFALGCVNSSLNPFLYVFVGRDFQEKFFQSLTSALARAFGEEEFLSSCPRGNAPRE

activation, inactive:
Clc1cccc(-n2cc(-c3ccccc3)c3c(N4CCCCC4)ncnc32)c1 -13.9%
CN(Cc1ccccc1)C(=O)C1CCN(Cc2cc3ccccc3n2Cc2ccccc2)CC1 -39.5%
COc1ccc(/C=C/C(=O)Nc2ccc3nc(N4CCC(C)CC4)cc(C)c3c2)cc1OC -34.5%
CC1CCN(C(=O)c2cc(-c3cccc(Cl)c3)on2)CC1 28.4%
Cc1ccc(-n2ncc3c(N(CCO)Cc4ccccc4)ncnc32)cc1 -6.02%
CC1=C(C(=O)Nc2ccccc2)C(c2ccccc2Cl)n2ncc(C(=O)Nc3cccc(C)c3)c2N1 (stereo not drawn) -7.94%
CCN(CC)S(=O)(=O)c1ccc2nc(NC(=O)c3ccccc3OC)sc2c1 -24.9%
Cc1oc2ccc(O)c(CN3CCCC3)c2c1C(=O)Nc1cccc(Cl)c1C 9.66%
Cc1ccccc1-c1nc(CS(=O)(=O)CC(=O)NCCc2ccccc2)c(C)o1 -0.399%
O=C(NCc1cccnc1)C(=O)NCC(c1cccnc1)N1CCN(c2ccc(F)cc2)CC1 (stereo not drawn) 5.2%
COc1cccc(NC(=O)c2nnn(Cc3cccc(C(F)(F)F)c3)c2N)c1 18.8%
O=C(Nc1ccc(Cl)cc1)c1cc(S(=O)(=O)N2CCCc3ccccc32)ccc1F -23.3%
O=C(CSc1ncc(-c2ccccc2)[nH]1)Nc1ccc(F)cc1F -23.6%
O=C(NCCN1CCCCC1)c1ccc(Cn2c(SCc3ccc(F)cc3)nc3cccnc32)cc1 -6.51%
Cc1ccc(C(=O)/C=C/c2cn(CC(O)CN3CCCCCC3)c3ccccc23)cc1 (stereo not drawn) 31.9%
COc1ccc(-n2c(=O)c3ccc(C(=O)NCc4ccc(C)cc4)cc3n(CC(=O)Nc3ccc(C)cc3)c2=O)cc1 -2.68%
CCc1ccc(OCC(=O)NCc2nc(-c3cccc(C)c3)no2)c(Br)c1 -21.5%
Cc1ccc(-c2nc(CCNC(=O)C(=O)Nc3ccc(C)cc3C)cs2)cc1 -5.21%
Cc1ccc(C)c(-c2[nH]c3c(c2-c2c(-n4cccc4)n(C)c(=O)[nH]c2=O)c(=O)[nH]c(=O)n3C)c1 8.48%
COc1ccc(OC)c(NC(=O)c2cnn(-c3ccc(C)cc3)c2C2CCNCC2)c1 0.529%
CC(C)(C)OC(=O)N1CCC(c2c(C(=O)NCCN3CCC(Cc4ccccc4)CC3)cnn2-c2ccc(F)cc2)CC1 -10.8%
O=C(NCCc1ccccc1Cl)c1ccc(Cn2c(=O)c3cccn3c3cccnc32)cc1 -17.9%
Cc1ccc(C)c(N2CCN(CCCNC(=O)c3cnn(-c4ccccc4Cl)c3C3CCN(C(=O)OC(C)(C)C)CC3)CC2)c1 1.06%
CCCCNC(=O)c1cnn2c(C)c(Cc3c(C)cc(C)cc3C)c(C)nc12 -40.8%

activation, active:
Cn1ccc2c(OCC(=O)NCc3ccccc3Cl)cccc2c1=O 86.1%
CCOc1ccccc1C1CC(=O)NC(C)=C1C(=O)OCc1ccc(C)cc1 (stereo not drawn) 60.5%
O=C(Cn1nc(N2CCN(c3ccccc3)CC2)ccc1=O)NCc1cccc(Cl)c1 121%
COc1ccc(C(=O)Nc2ccccc2)cc1S(=O)(=O)Nc1ccc(Br)cc1 89.9%
CC(C)c1ccc(NC(=O)C2(C)Cc3ccccc3C(=O)O2)cc1 (stereo not drawn) 78.6%
COc1ccccc1NC(=O)CSc1nnc(NC(=O)Nc2ccc(C)cc2)s1 78%
Cc1ccc(C)c2sc(N3CCN(C(=O)c4ccco4)CC3)nc12 87.8%
COc1ccc(CCNC(=O)CSc2cn(CCNC(=O)c3ccccc3F)c3ccccc23)cc1OC 80.1%
CCOc1ccccc1NC(=O)c1c(NC(=O)c2ccccc2)sc2c1CCCC2 66.3%
Cc1ccc(CN2C(=O)C(O)(c3c[nH]c4ccccc34)c3cc(Cl)ccc32)cc1 (stereo not drawn) 87%
Cc1c(Cl)ccc2sc(N3CCN(C(=O)c4ccco4)CC3)nc12 85.4%
CCCCn1c(-c2ccc(C)cc2)c(C)n2c3c(=O)n(C)c(=O)n(C)c3nc12 85.4%
O=C(NCCO)c1ccc(-c2nnc(Nc3ccc(OC(F)(F)Cl)cc3)c3ccccc23)cc1 66.2%

activation, inconclusive:
Cc1c(-c2ccccc2)oc2c(C(=O)OCCN3CCCCC3)cccc2c1=O 56%
CN(C)CCNC(=O)c1ccc2c(c1)N(Cc1c(F)cccc1Cl)C(=O)c1ccccc1S2 55.4%
CCc1cccc(NC(=O)CCNS(=O)(=O)c2ccc3c(c2)CCN3C(C)=O)c1 162%
O=C(Nc1ccc(Cl)cc1)C1CCN(S(=O)(=O)c2ccc(Br)s2)CC1 123%
CCCn1ccc2c(OCC(=O)Nc3ccc(F)cc3F)cccc2c1=O 52.8%
Cc1ccc(NC(=O)c2c(C)oc3ccc(O)c(CN4CCCCC4)c23)cc1 51.4%
COc1cc(OC)cc(C(=O)Nc2cccc(-c3cn4cccnc4n3)c2)c1 54.1%
CCCNc1nc(NCc2ccccc2OC)c2cnn(C)c2n1 140%
CCc1cccc(C)c1Nc1c(-c2cccc(O)c2)nc2cnccn12 174%
COc1ccc(CCCc2nnc(SCC(=O)Nc3ccccc3F)o2)cc1C 54.5%
COc1ccc(NC(=O)C2CCN(c3nc(-c4ccc(OC)c(OC)c4)no3)CC2)cc1Cl 53.6%
O=S(=O)(Nc1ccc(Br)cc1)c1ccc2nc(-c3ccccc3)[nH]c2c1 192%
COc1cccc(-n2ccnc2SCC(=O)Nc2nc3ccc(C)cc3s2)c1 51.4%
CCN(C(=O)CSc1nc(-c2ccccc2)no1)c1cccc(C)c1 182%
CC(=O)[C@@]1(O)CC[C@H]2[C@@H]3C[C@H](C)C4=CC(=O)C=C[C@]4(C)[C@@]3(F)[C@@H](O)C[C@@]21C 50.1%
Cc1ccc(NC(=O)Nc2nc3c(s2)CCCCCC3)cc1C 52.2%
O=C(Nc1ccc(Cl)cc1)Nc1ccc(Cl)c(C(F)(F)F)c1 220%
COc1cc(NC(=O)C2CCN(S(=O)(=O)c3ccc4c(c3)CCCC(=O)N4)CC2)cc(OC)c1 58.6%
Cc1ccc(C(=O)Nc2ccccc2)cc1S(=O)(=O)Nc1ccc(Br)cc1 123%
CCCCOC(=O)Cn1nnc2sc(-c3ccccc3)cc2c1=O 57.4%
CCOC(=O)C1=C(CS(=O)(=O)c2cccc(C(F)(F)F)c2)NC(=O)NC1c1cccc(OC)c1 (stereo not drawn) 209%
Cc1ccc(Cl)cc1-n1ncc2c(NC3CCCCCC3)ncnc21 55%
COc1ccc(CCNc2ncnc3c2cnn3-c2ccc(C)cc2)cc1 224%
C(=C\c1ccccc1)/CN1CCN(C(c2ccccc2)c2ccccc2)CC1 54.9%
CCN(CC)c1cc(C)c2cc(NC(=O)c3ccccc3OC)ccc2n1 138%
CCOc1ccccc1CNS(=O)(=O)c1ccc(-c2coc(C)n2)cc1 256%
CCOC(=O)c1noc2ncnc(Nc3ccc(F)cc3F)c12 351%
Cc1ccccc1-c1nc(CNC(=O)Nc2ccccc2)c(C)o1 251%
CC(C)CCOc1ccc(C(=O)Nc2sc3c(c2C#N)CCCCC3)cc1 129%
Oc1c(I)cc(Cl)c2cccnc12 161%
Cc1ccc(Cn2c(C(=O)O)c(CNCCc3ccco3)c3ccc(C)cc32)cc1 56.1%
Cc1nc(SCC(=O)Nc2ccc(Br)cc2)[nH]c(=O)c1Cc1ccccc1 51.8%
CC(C)c1ccc(Nc2c(-c3ccccc3O)nc3cnccn23)cc1 129%
Cc1oc(-c2ccc(C(=O)NCc3ccccc3)cc2)nc1CS(=O)(=O)c1ccccc1 125%
COc1ccc(NC(=O)c2c(NC(=O)c3ccc(Br)cc3)sc3c2CCCC3)cc1 56.7%
CCCOc1ccc(C(=O)Nc2ccc(Cl)c(-c3nc4ncccc4o3)c2)cc1 256%
Cc1c(-c2nsc(NC(=O)c3cccc(Cl)c3)n2)nnn1-c1ccccc1C(F)(F)F 58.2%
COC(=O)c1c(NC(=O)Nc2ccc(Cl)cc2)sc(C)c1C 134%
Oc1c(Cl)cc(Cl)c(Cl)c1Cc1c(O)c(Cl)cc(Cl)c1Cl 127%
COc1ccc(C2C=C(c3ccccc3)Nc3nc(NS(=O)(=O)c4ccc(Cl)cc4)nn32)cc1 (stereo not drawn) 164%
COc1ccc(OC(=O)N(CC(=O)O)Cc2ccc(OCCc3nc(-c4ccccc4)oc3C)cc2)cc1 179%
CCc1nc2ccccc2n1CCCCOc1ccc(C)cc1 50.6%
CC1=C(C(=O)Nc2ccccc2)C(c2ccc(O)cc2)n2nc(-c3ccc(Cl)cc3)nc2N1 (stereo not drawn) 129%
COc1ccc(-c2nc3cc(NC(=O)COc4ccc(F)cc4)ccc3o2)cc1 168%
COc1cccc(C(=O)Nc2nc(-c3nnn(-c4cccc(Cl)c4C)c3C)ns2)c1 132%
COc1ccc(NC(=O)CSCc2cc(=O)c3cc(Cl)ccc3[nH]2)cc1 122%
